Laboratory results: publication PMC10726135
Some of the results follow. At the low end of the ranking the order means little. The protein was read in a cell extract, so binding may be indirect.

The sequences below were run against T1, HNF4alpha8 (COS-7 nuclear extract) (UniProt P41235-5) (assay: protein-binding microarray). Conditions: COS-7 nuclear extract on double-stranded Agilent 4x180k PBM; binding buffer, salt, pH and temperature not given; high values mean tight binding; double strand, one strand shown; sequences stand for … in …GCCTAGGGAGATTAGAGTATCGGTCGA.
T1 sequence: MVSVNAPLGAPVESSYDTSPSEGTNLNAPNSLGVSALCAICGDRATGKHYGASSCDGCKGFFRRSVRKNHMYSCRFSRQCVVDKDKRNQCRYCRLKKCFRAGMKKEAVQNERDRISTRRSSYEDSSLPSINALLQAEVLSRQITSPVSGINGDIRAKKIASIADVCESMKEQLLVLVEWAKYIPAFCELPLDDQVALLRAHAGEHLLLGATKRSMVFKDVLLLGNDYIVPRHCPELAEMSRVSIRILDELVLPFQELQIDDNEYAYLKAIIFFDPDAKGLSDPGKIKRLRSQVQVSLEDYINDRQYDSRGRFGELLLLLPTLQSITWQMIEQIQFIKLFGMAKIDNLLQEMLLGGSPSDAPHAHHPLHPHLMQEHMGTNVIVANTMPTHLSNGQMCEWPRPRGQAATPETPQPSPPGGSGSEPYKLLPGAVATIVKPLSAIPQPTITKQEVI

| Sequence | binding signal (log2 normalized intensity) |
| --- | --- |
| TGAGACGCAAGCATATCTCTAGATCTCAGT | -1.21 |
| CCTCCCCCCTTCTGTTTCCAGAAATCTGAC | 2.58 |
| ATGTTCCTTATCAGAGAGGCCTCACAGCCT | -1.37 |
| ACATTCCAGGACCTTTGCTCATGTCCTCTT | 3.3 |
| TCATAAAGAACAGTTATTCTTAGCTTTCCT | -0.77 |
| CTCCACCTACGCTACGCACCAGGCATACTC | -1.3 |
| TCCCATCCCCAGAGCCCCCTTGATGCATCA | 4.78 |
| AGATAACAAACTTGATTGGGTATCAAGGGT | -0.598 |
| CTGCAAAGAAGTCAAACTTTGGACCCACTG | 6.61 |
| TCGAGCAAGGTTCAGCACATTTATGAGGCC | 0.054 |
| ATGGTGGCCATTCTGATTTGATAAGATGTG | 0.328 |
| ACAAAACCTGTTTAGGATTAAACAAACAAG | -1.27 |
| AACCAGATGGCCCTCTCCAAGGCGGTGTGG | -1.38 |
| TTCTGCACCTGCCCTCAGGGAGCTCCAGCA | -1.18 |
| GAAAGACCTTTTCCCTCCCTCCCAGTACAA | 3.87 |
| ACTTCAAAGCGCAGCGCGGGGCTCAAAGGC | -1.24 |
| TTCCTGCTCATGCAGCTGCTGCCCAAAGGT | -1.37 |
| TGTTCAAGACCAAAGGTCATGGCAACAGTT | 4.96 |
| CACACCCCTGGGGAAGGCAGGTCTCTCTCA | -1.38 |
| TGCAGCCGAACCGGCACGGTTTCGTGGGGA | -1.28 |
| GACAGATCAGAGAGATTTTCACATGGAATG | -0.886 |
| TAGGGCCTTGCTATGGAGTGGACTTTGGCT | 7.22 |
| CTTTGTTAAAGCATATTTATTCAGGCCCAC | 0.298 |
| GGGGAGGGCAGGGTCAGAACCTGCCCATGA | 0.0112 |

| Sequence | binding signal (log2 normalized intensity) |
| --- | --- |
| TCGTGATAGTGACCACCTGGTGGACCCAGC | 4.2 |
| TCTTGTTTGCTAAGTGAGAACACCGTGTAC | 1.73 |
| ATAAAGAACTCTAAGCAGCGAAGCTGTGTC | -1.27 |
| CCCGCAGCCCAGTCTTGGCCCCACCGGTCA | 2.47 |
| GTGTGTTTACATAACCTGCCCAAAGTGGGG | 0.79 |
| GGTTGAATTTCAGAGGGAAGAGGAAGCATC | -1.23 |
| CAGGCAACCAAGGGTACACACCGTTAGCCA | -1.36 |
| CACTGTATCAGGGAGATAGTCTGAGAGTCA | -1.25 |
| GAATGCCTAGGGGGAAGCCCCTGCTTCCGG | -1.36 |
| CAAAGTGCGACAGGGAGATTTCCTGGGAGA | -1.22 |
| ACTCTAAAGGGAATAACCTTTGAGCTGAGT | 5.63 |
| AACTTGAAGCAGGCAGGCAGCTTCCAGGTG | -1.24 |
| TTCTGCCCCTTGCTCCTGCTTGCTGGCTTT | 1.35 |
| ACAAGTGTGATTTTTAGATAGTGACTTGAA | 0.56 |
| CTGGGTTATGATCCTGGCTCTCCCACTTAT | 0.654 |
| AAAAGGGCAAAACTGTCACAAGAAAGGCAG | -1.31 |
| AAGGCTGCAAGCAAACCTGCCCTTTGCTCC | 6.42 |
| GAGGGTAAATTCCTTCTTTCTCTCTCCCTT | 1.61 |
| CTCATAGCTCCAGAGCCACCGCTACCACAC | -1.32 |
| AGGCTCCCTGGCCACAGGAATGTGACCTTC | 6.28 |
| AGTCCAACTTCTGCAGGCACCTGGCTCGAC | -1.25 |
| CTTAATTTTCTCCTTTCCTCCTATGTCAAT | 1.02 |
| AGGGCCCTTCACTATTTTCAAAGGTCAACA | 4.6 |
| AGGGAGGTGATTGGTGAGTCTTAGGGAGGG | -1.45 |

| Sequence | binding signal (log2 normalized intensity) |
| --- | --- |
| CCCTCCCCCTGCATGAACCTTTGCTCCCTG | 6.27 |
| GCTCAGCGGTTACTTCGAGTACATTGTAAC | 0.883 |
| TTCCCACATTGCTCTCCCATAAGAATCCTT | 0.0857 |
| GGTGGTGAAAGTCAACAAGATTCCTTGAGC | -1.35 |
| GTCTAGATGCTGGGCAGCTTGTGTGCGTTT | 1.16 |
| GCGGATCCAACCTGTTCTTTTGAGCTGTGG | 0.726 |
| TCAACCCCCACTTCCTGACTTGGCCTGAAC | 3.06 |
| GCAAAGGTCAGGAGTTCCATTTAGCTTCAG | 0.94 |
| AGGCCGGTTGGCCAGGTTCCTCCACCGTCA | -0.785 |
| ATTGATATCACCCTCCCTATCAGCTACTCA | 1.85 |
| TGAAAGTCTAAAGTTCAGTGAGATTAGGAA | 4.28 |
| TGTTATAGCTTTTAAAGAACTGGGCGAGCC | -0.625 |
| ACTGGTAACTAGGTTAATGTGAACAGACAG | -0.0137 |
| TGCTCCACCTTTGAAATCTCAAATAGCTGG | -1.07 |
| GAAGATAAAGTGTCTCCCTCTGCAGCAAAG | -1.16 |
| AGGTCAGGGAGTAGGTTTGATTTGTGAAAG | 1.03 |
| AACAAAATAATAGTTGACCTTTGAGAACCT | 5.19 |
| TACTGGGGGCCACCATATGTATGTGAAGCT | -1.29 |
| GCCAAGGTACCCTGGCTTGTAATTCAAGAC | -0.977 |
| CTGGGCCAAAGGGCATTCTGGAGTTTGGAA | 3.69 |
| CCAATCTAGCAAAAATCCTGCCAAACCAGT | -1.18 |
| ACATACAGGGTCTAGCAGTGCAGCGGGGTC | 2.99 |
| CTAGCAATAACCACAAGGGGGGAGCACCTC | -1.05 |
| GAGGTGACCCCAGGGCAAAGTGCATTGGAG | 4.27 |
